Measurements as given in PMC7529893, “Structural basis for substrate recognition and chemical inhibition of oncogenic MAGE ubiquitin ligases” (Nature Communications, 2020).
Where a chain is given by its changes, count along the chain named. No constants are given. Whether binding was seen depends on the method and setting. In cells and extracts the contact can be indirect. Some binding calls cover weakened binding; strength is not graded here. For some of these results: Tags and fused reporters may be left off the sequences shown.

Sequences of proteins named here, by UniProt entry; tags and fusion partners are left off. A change or cut given only in a name is not applied to a line headed by its entry. A line that says so, or that is headed by a name, gives the form on record, which may keep a tag or linker.
UniProt P43357: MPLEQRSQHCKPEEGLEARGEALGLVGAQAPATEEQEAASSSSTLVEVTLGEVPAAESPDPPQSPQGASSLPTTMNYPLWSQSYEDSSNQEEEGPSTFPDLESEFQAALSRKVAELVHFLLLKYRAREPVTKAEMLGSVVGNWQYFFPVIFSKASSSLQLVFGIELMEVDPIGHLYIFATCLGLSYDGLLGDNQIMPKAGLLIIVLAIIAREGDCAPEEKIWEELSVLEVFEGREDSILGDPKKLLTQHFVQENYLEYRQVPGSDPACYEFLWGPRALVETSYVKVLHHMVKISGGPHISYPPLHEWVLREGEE
UniProt P58546: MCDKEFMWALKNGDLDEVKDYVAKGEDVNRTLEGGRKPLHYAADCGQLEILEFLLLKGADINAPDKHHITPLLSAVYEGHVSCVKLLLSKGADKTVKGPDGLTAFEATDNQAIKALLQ
UniProt O94913: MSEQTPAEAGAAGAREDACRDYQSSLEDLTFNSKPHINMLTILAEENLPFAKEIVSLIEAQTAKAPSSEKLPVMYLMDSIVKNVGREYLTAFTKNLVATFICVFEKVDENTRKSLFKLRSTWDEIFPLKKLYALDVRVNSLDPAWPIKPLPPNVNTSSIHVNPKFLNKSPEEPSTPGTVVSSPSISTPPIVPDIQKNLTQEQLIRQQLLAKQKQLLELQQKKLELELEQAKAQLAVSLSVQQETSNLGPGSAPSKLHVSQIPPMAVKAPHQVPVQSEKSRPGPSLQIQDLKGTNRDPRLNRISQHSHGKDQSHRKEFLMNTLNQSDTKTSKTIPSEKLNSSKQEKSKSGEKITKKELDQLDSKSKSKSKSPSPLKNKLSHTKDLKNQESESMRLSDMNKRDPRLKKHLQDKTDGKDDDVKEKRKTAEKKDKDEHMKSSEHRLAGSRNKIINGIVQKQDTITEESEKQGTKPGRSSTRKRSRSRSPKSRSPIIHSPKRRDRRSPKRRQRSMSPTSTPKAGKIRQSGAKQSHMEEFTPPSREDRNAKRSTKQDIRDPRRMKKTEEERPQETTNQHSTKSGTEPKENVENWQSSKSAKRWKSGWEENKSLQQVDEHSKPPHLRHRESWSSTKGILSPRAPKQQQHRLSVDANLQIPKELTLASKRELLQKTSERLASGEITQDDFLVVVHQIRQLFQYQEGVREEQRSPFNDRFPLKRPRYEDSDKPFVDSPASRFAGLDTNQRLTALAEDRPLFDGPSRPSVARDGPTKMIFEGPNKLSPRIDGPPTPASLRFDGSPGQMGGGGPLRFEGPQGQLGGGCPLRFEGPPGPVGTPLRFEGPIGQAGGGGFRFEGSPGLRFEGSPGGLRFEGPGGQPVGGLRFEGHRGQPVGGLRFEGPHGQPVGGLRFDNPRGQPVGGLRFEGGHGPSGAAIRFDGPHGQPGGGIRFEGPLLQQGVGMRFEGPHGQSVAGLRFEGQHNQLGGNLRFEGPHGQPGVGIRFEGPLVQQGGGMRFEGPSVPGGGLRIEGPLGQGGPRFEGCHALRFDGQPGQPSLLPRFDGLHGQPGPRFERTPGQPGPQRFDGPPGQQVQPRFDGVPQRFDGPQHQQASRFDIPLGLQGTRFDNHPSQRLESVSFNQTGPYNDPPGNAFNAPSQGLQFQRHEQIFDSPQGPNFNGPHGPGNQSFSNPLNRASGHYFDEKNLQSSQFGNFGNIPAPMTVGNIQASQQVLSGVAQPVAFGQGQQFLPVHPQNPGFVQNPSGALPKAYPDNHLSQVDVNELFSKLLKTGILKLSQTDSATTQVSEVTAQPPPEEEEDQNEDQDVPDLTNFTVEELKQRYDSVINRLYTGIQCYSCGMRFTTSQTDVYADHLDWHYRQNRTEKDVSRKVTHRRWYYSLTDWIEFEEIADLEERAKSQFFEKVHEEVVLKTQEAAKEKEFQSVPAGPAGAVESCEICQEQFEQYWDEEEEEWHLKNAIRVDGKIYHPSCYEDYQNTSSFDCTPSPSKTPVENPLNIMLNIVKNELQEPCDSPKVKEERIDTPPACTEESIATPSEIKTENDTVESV
PCF11 653-702 deletion construct (Myc-tagged, transfected) (O94913, form named): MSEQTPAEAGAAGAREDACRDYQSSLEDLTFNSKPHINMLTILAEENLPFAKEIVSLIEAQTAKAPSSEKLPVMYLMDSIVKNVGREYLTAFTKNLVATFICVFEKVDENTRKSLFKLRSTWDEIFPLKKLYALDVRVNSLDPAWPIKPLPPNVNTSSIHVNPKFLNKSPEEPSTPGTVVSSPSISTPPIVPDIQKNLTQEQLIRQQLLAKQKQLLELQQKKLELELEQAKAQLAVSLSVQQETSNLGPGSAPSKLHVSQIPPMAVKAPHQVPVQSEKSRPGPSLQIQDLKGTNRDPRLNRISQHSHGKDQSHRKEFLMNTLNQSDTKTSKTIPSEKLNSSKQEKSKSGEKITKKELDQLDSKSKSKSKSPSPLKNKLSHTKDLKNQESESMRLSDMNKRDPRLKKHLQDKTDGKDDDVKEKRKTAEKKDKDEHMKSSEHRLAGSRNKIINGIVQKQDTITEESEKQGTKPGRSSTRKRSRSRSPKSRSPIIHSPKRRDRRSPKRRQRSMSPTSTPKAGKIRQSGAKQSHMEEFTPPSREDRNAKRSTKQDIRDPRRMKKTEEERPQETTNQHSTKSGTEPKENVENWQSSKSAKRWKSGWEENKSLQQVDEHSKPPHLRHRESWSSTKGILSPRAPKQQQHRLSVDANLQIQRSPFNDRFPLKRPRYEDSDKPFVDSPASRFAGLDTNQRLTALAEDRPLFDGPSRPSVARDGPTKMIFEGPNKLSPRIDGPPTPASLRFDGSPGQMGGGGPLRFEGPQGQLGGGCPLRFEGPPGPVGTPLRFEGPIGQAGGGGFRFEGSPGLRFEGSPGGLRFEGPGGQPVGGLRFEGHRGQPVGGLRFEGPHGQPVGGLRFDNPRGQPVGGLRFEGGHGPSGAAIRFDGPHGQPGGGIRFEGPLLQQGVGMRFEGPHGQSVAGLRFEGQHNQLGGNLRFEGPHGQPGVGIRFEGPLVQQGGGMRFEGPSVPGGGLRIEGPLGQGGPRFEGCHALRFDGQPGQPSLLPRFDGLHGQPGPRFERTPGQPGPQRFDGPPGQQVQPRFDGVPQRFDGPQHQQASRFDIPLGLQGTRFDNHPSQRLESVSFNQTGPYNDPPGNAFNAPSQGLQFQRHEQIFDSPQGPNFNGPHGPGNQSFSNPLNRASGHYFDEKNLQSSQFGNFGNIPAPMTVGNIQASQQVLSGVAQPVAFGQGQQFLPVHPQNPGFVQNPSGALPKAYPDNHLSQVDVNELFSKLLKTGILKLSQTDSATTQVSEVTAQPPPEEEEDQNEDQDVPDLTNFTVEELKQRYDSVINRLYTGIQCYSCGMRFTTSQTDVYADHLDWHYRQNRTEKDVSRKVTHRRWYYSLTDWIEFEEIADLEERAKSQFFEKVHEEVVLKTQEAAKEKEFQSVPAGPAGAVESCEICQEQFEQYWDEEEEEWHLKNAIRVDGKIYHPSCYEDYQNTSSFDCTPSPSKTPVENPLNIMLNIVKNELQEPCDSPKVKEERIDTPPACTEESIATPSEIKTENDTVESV
UniProt Q13263: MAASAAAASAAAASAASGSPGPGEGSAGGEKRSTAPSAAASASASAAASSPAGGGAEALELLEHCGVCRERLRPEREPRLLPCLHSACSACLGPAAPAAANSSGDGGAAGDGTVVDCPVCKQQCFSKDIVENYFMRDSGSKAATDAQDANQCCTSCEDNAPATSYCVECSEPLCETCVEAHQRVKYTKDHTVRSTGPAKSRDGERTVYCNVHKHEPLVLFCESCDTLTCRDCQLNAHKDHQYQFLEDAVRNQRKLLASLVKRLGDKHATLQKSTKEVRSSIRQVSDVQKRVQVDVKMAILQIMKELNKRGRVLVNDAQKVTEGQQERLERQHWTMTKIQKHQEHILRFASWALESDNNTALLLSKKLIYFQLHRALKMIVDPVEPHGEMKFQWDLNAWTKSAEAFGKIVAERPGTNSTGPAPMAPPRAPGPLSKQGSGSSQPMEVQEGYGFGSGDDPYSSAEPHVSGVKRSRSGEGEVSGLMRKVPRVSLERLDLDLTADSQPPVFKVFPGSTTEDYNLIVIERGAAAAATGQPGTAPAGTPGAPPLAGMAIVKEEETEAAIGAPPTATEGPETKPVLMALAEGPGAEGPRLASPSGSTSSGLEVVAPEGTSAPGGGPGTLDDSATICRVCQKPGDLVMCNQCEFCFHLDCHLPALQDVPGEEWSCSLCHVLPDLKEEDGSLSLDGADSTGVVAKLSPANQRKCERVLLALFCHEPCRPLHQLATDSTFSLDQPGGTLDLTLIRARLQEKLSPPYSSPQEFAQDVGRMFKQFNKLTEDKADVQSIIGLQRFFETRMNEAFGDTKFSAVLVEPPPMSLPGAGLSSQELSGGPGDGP

How the values were obtained:
[1] = molecular target: T1, FLAG-MAGE-A11 F275A (human) (UniProt P43364); assay: co-IP; HEK293FT cells stably expressing FLAG-MAGE-A11 wild-type or mutants; pull-down with anti-FLAG, immunoblot anti-HUWE1 and anti-PCF11; in Fig. 5h lysates were incubated with 100 µM SJ521054 or SJ1008066 for 24 h
T1 sequence: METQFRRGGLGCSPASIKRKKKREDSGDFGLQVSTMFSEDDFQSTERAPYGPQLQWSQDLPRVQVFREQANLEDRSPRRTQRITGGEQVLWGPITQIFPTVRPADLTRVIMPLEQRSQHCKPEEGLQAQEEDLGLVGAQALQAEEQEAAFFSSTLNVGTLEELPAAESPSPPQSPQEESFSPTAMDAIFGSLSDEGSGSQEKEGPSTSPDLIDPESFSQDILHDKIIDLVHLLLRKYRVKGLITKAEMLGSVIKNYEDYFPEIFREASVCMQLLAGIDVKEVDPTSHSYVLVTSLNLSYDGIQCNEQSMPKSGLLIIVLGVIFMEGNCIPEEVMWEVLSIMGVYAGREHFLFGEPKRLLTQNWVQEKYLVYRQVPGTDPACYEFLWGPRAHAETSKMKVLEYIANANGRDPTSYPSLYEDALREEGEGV

[2] = molecular target: T2, FLAG-MAGE-A11 I317R (human) (UniProt P43364); assay: as above
T2 sequence: T1 sequence with A275F, I317R

[3] = molecular target: T3, FLAG-MAGE-A11 M341R (human) (UniProt P43364); assay: as above
T3 sequence: T1 sequence with A275F, M341R

[4] = molecular target: T4, FLAG-MAGE-A11 Y414A (human) (UniProt P43364); assay: as above
T4 sequence: T1 sequence with A275F, Y414A

[5] = molecular target: T5, FLAG-MAGE-A11 wild-type (human) (UniProt P43364); assay: as above
T5 sequence: T1 sequence with A275F

[6] = molecular target: T6, GST-MAGE-A11 MHD (human MAGE-A11 MHD amino acid 218-429) (human) (UniProt P43364); assay: pull-down; purified GST-tagged protein on glutathione Sepharose beads, in vitro translated Myc-tagged protein (rabbit reticulocyte lysate) added; 25 mM Tris pH 8.0, 2.7 mM KCl, 137 mM NaCl, 0.05% Tween-20, 10 mM 2-mercaptoethanol, 5% milk powder; immunoblot anti-Myc; only the target purified
T6 sequence: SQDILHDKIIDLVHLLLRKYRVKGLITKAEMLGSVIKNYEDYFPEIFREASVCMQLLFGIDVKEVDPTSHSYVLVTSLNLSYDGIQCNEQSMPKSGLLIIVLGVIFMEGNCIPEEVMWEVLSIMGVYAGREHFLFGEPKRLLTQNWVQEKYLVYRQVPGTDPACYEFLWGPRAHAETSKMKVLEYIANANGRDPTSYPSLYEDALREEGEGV

[7] = molecular target: T5, FLAG-MAGE-A11 wild-type (human); assay: co-IP; HEK293FT cells stably expressing FLAG-MAGE-A11, transfected with PCF11 wild-type or 653-702 deletion construct for 48 h; IP with anti-FLAG, immunoblot anti-Myc
Myc-MAGE-A3 F162A = Myc-MAGE-A3 F162A (UniProt P43357); assay: co-IP; HeLa cells transfected with the indicated constructs for 48 h; IP with anti-Myc, immunoblot; in Fig. 5i lysates were incubated with 100 µM SJ521054 or SJ1008066 for 24 h
Myc-MAGE-A3 I204R = Myc-MAGE-A3 I204R (UniProt P43357); assay: as above
Myc-MAGE-A3 L228R = Myc-MAGE-A3 L228R (UniProt P43357); assay: as above
Myc-MAGE-A3 Y301A = Myc-MAGE-A3 Y301A (UniProt P43357); assay: as above
Myc-MAGE-A3 wild-type = Myc-MAGE-A3 wild-type (UniProt P43357); assay: as above

binding [2] | binding [3] | binding [5] | binding [7] | Substance | further results
binds | binds | binds | – | HUWE1 (from UniProt Q7Z6Z7 1-4374) (enzyme) | binding [1]: binds; binding [4]: binds
– | – | – | – | MTPN (Myc-tagged, in vitro translated) (from UniProt P58546 1-118) | binding [6]: no binding
no binding | no binding | binds | – | endogenous PCF11 (from UniProt O94913 1-1555) | –
– | – | – | binds | PCF11 wild-type (Myc-tagged, transfected) (from UniProt O94913 1-1555) | –
– | – | – | no binding | PCF11 653-702 deletion construct (Myc-tagged, transfected) (from UniProt O94913 1-1555) | –
– | – | – | – | TRIM28 (from UniProt Q13263 1-835) (enzyme) | binding (Myc-MAGE-A3 F162A): binds; binding (Myc-MAGE-A3 I204R): binds; binding (Myc-MAGE-A3 L228R): binds; binding (Myc-MAGE-A3 Y301A): binds; binding (Myc-MAGE-A3 wild-type): binds
